95 compounds from PubChem BioAssay AID1508623 (National Center for Advancing Translational Sciences (NCATS), 2021) can be followed below.

Structures are written as SMILES. In all, about 48,000 compounds went through this assay and about 450 (0.94%) were called active. About 19% were inconclusive and are not listed. The call rests on the fitted dose curve; in most records, active means well fitted inhibition curve with a large enough effect; inconclusive means small, poorly fitted or top-dose-only effect; inactive means no such curve, though single readings can be large or run the other way. The list shows a part of the results.

The assay is described as follows: Primary qHTS for Identification of Small Molecule Inhibitors of Huntingtin Promoter Activity. Further: nearly all actives have a fitted effect of over 50% in size. Particulars: HEK293 HTT promoter firefly luciferase reporter (activity 0% = vehicle and -100% = no light), 24 h; series mostly up to 57.5 µM; activity change, negative = inhibition: at the top concentration. An outline of the steps: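 HEK293 luciferase promoter-reporter cells (2,500/well) plated 24 h, then compounds added at up to 57.5 uM final for 24 h at 37 °C. Firefly luminescence by Dual-Glo, normalized to vehicle (0%) and zero RLU (-100%).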
With `Cc1ccc(-c2nc3scc(CCNS(=O)(=O)c4ccc(C)c(C)c4)n3n2)cc1`, the “activity change, negative = inhibition” value is inactive: -28%. To `Cc1cccc(OCC(=O)Nc2ccc(C(=O)OCc3cc(=O)n4nc(C5CC5)sc4n3)cc2)c1` belongs inactive: -9.59%; to `COC(=O)c1ccc(NC(=O)CSc2ccc(-c3cccs3)nn2)cc1`, inactive: 6.56%; to `CCc1ccc(NC(=O)C(Cc2ccccc2)NS(=O)(=O)c2ccc3c(c2)CCN3C(C)=O)cc1` (stereo not given), inactive: -18.8%. Turning to `Cc1cc(C)c(NC(=O)c2cc(CN3CCOCC3)on2)c(C)c1`, the “activity change, negative = inhibition” value was inactive: -0.0094%. To `COc1ccc2cc(S(=O)(=O)c3ccccc3F)c(=O)oc2c1` belongs inactive: -29.2%; to `CCCc1ncc(C[n+]2ccccc2C)c(N)n1`, inactive: 7.75%; to `C#CCOc1ccc(C2C(C(=O)OC)=C(C)NC3=C2C(=O)c2ccccc23)cc1OCC` (stereo not given), inactive: -27.8%. To `CCOc1ccc(Sc2cc(C(=O)NCCCOC)c3ccccc3n2)cc1` belongs inactive: -20.8%; to `Cc1ccc(C)c(CSc2c(C(C)C)cnc3c2c(=O)n(C)c(=O)n3C)c1`, inactive: -27.1%; to `Cc1ccc(NC(=O)Cn2cc(S(=O)(=O)N3CCN(c4ccccc4F)CC3)c3ccccc3c2=O)cc1F`, inactive: -19.9%. To `Cc1csc2nc(COc3ccc(NC(=O)COc4ccc(F)cc4)cc3)cc(=O)n12` belongs inactive: 4.9%; to `CCOc1ccc(/C=C/c2nc(C#N)c(N(C)C)o2)cc1`, inactive: 57.4%. Regarding `Cc1cc2c(cc1NC(=O)c1ccc(C(C)(C)C)cc1)n(C)c(=O)c(=O)n2C`, the “activity change, negative = inhibition” value is inactive: 4.2%. The figure for `CCOc1ccccc1CNC(=O)c1nn(C)c2c1CS(=O)(=O)c1ccccc1-2` is inactive: -23.2%; for `CC(C)c1ccc(CNc2nc(-c3ccco3)nn2S(=O)(=O)c2ccccc2)cc1` it is inactive: -2.55%; for `COc1ccc(NC(=O)c2sc3nc[nH]c(=O)c3c2C)cc1` it is inactive: 80.3%. To `Cc1ccc(-c2cc(C(=O)Oc3ccccc3)c3cccc(C)c3n2)cc1` belongs inactive: -15%; to `Cc1sc(-c2cc3ccccc3oc2=O)nc1-c1ccc(Cl)cc1`, inactive: 3.6%. To `COC(=O)c1cc(S(=O)(=O)N2CCN(c3ccc(C)cc3C)CC2)cn1C` belongs inactive: -5.09%; to `O=C1CC(c2ccccc2)Cc2[nH]c(=O)c(-c3nc(-c4ccc(F)cc4)cs3)cc21` (stereo not given), inactive: -27.1%; to `CC(C)Oc1ccc(CNC(=O)C2COc3ccccc3C2)cc1` (stereo not given), inactive: 18.6%. For `O=C(CN1C(=O)COc2ccc(S(=O)(=O)N3CCCC3)cc21)N1CCN(c2ccccc2F)CC1`, the “activity change, negative = inhibition” value is inactive: -8.75%.

With `CCOc1ccc(C2c3c(oc4ccc(C)cc4c3=O)C(=O)N2c2nc(C)c(C)s2)cc1OC` (stereo not given), the “activity change, negative = inhibition” value was inactive: 9.65%. The figure for `COc1ccc(-c2noc(-c3ccc(N4CCCCC4)c([N+](=O)[O-])c3)n2)cc1` is inactive: -4.78%; for `CCCCCCOc1ccc(-c2nc3ccc(Br)cc3c(=O)o2)cc1` it is inactive: 0.484%; for `COC(=O)c1ccccc1NC(=O)Nc1cccc(OCc2cc(=O)n3cccc(C)c3n2)c1` it is inactive: 14%. The figure for `CCN1CCN(C(c2cccc(Cl)c2)c2c(O)cc(C)n(CCOC)c2=O)CC1` (stereo not given) is inactive: -15.1%. As for `Cc1ccc(CCNC(=O)CN2C(=O)COc3ccc(S(=O)(=O)N4CCC(C)CC4)cc32)cc1`, the “activity change, negative = inhibition” value was inactive: -26.9%. To `Cc1cc(OCC(=O)NCC2(N(C)C)CCCCC2)cc(C)c1Cl` belongs inactive: -5.14%; to `CCn1cc(C(=O)NCCCN(CC(C)C)CC(C)C)c(=O)c2cc(S(=O)(=O)N3CCc4ccccc4C3)ccc21`, inactive: -6.52%; to `COc1ccc(CC(=O)Nc2ccc(-c3nc4ccccc4s3)cc2Cl)cc1`, inactive: -27%. The figure for `O=C(NCc1ccccc1)C(=O)NCC(c1ccco1)S(=O)(=O)c1ccccc1` (stereo not given) is inactive: -16.3%; for `CCc1ccc(NC(=O)N(Cc2c[nH]c3ccccc23)C2CCCCCC2)cc1` it is inactive: 38.1%; for `Cc1cc2nn(-c3ccc(F)cc3)nc2cc1NC(=O)c1cc(Cl)ccc1Cl` it is inactive: 13.5%.

Turning to `CCCN(CCC)c1nn2c(=O)c(C(=O)NCc3cccc(OC)c3)cnc2s1`, the “activity change, negative = inhibition” value is inactive: -5.51%. To `COc1ccc(Cl)cc1NC(=O)CSc1nnc(C)n2c1cc1occc12` belongs inactive: -9.36%; to `CCC1CN(C(=O)NCc2cccc(OC)c2)c2ccccc2O1` (stereo not given), inactive: -4.01%.

As to `COc1ccc(-c2[nH]c(-c3ccccc3)nc2SCC(=O)NC2CCCC2)cc1`, the “activity change, negative = inhibition” value was inactive: -26.3%. The figure for `COc1ccc(CCNC(=O)c2cc3c(=O)n(C)c4cc(Cl)ccc4c3s2)cc1OC` is inactive: -7.03%. To `O=S1(=O)c2ccccc2N(Cc2ccccc2Cl)c2ccccc21` belongs inactive: -1.84%; to `COc1cccc(NC(=O)C(=O)NCCc2sc(-c3cccc(C)c3)nc2C)c1`, inactive: 43.2%.

Turning to `Cc1ccc(-c2ccc(=O)n(CC(=O)NC(C)c3ccccc3)n2)cc1` (stereo not given), the “activity change, negative = inhibition” value is inactive: -3.2%. The figure for `CC(C(=O)O)c1cccc(Oc2ccccc2)c1` (stereo not given) is inactive: -0.955%; for `Cc1ccccc1NC(=O)Cn1c(=O)n(CCCCC(=O)NCc2ccccc2Cl)c(=O)c2ccccc21` it is inactive: -8.36%; for `O=C(CN1C(=O)COc2ccc(S(=O)(=O)Nc3ccccc3)cc21)NCc1ccccc1Cl` it is inactive: -6.34%. To `CCOC(=O)c1c(S(=O)(=O)N2CCC(C(=O)Nc3cccc(C#N)c3)CC2)c(C)n(C)c1C` belongs inactive: -14%; to `COc1ccc(CCNc2nc(SCc3ccccc3Cl)nc3ccccc23)cc1OC`, inactive: -5.43%. To `COc1ccc(NC(=O)Cn2c(=O)n(CCc3ccccc3)c(=O)c3sc4ccccc4c32)cc1` belongs inactive: 14.9%. Regarding `Cc1cc(C)nc(-n2nc(C)c3c2NC(=O)CC3c2ccccc2OC(C)C)n1` (stereo not given), the “activity change, negative = inhibition” value was inactive: -29.5%. To `Cc1ccc(C)c(NC(=O)C2CCCN(S(=O)(=O)c3cccc4nsnc34)C2)c1` (stereo not given) belongs inactive: -23.5%; to `CCCCC(=O)NC1(C(F)(F)F)C(=O)Nc2c1c(=O)[nH]c(=O)n2-c1ccc(F)cc1` (stereo not given), inactive: -11.2%. The figure for `COc1cc(Cl)c(NS(=O)(=O)c2ccc3[nH]c(=O)ccc3c2)c(OC)c1` is inactive: -18.6%. To `CCC1CCCCN1C(=O)Cn1c(=O)n(-c2ccccc2C(F)(F)F)c(=O)c2c(C)c(C(=O)N(C)C)sc21` (stereo not given) belongs inactive: 13.3%. On to `CCOc1ccc(NC(=O)C(CC)n2nc(-c3ccc(C)c(C)c3)ccc2=O)cc1` (stereo not given), for which the “activity change, negative = inhibition” value was inactive: -26%. To `COc1ccc(C2CC(=O)c3c([nH]c(C(=O)OC4CCCC4)c3C)C2)cc1OC` (stereo not given) belongs inactive: -19.7%; to `COc1ccccc1N1CCN(C(c2ccccc2)c2nnc(-c3ccccc3Cl)o2)CC1` (stereo not given), inactive: -11%; to `Cc1ccc(NC(=O)Cn2c(=O)n(Cc3nc(-c4ccccc4)no3)c(=O)c3cc4c(cc32)OCO4)cc1C`, inactive: 6.42%. On to `O=C(c1ccc2c(c1)N(Cc1ccccc1F)C(=O)c1ccccc1S2(=O)=O)N1CCCCCC1`, for which the “activity change, negative = inhibition” value was inactive: -24.2%.

Consider `CCCNC(=O)c1cc2n(n1)CCCN(Cc1ccc(F)cc1)C2=O`, for which the “activity change, negative = inhibition” value is inactive: -16.9%. To `C[C@@H]1CN(CCCn2c3ccccc3c3ccccc32)C[C@H](C)N1` belongs inactive: -21.6%.

With `COc1cccc(C(=O)c2sc(Nc3ccc(C)cc3C)c(S(=O)(=O)c3ccccc3)c2N)c1`, the “activity change, negative = inhibition” value is inactive: -23.9%. The figure for `CCOc1ccc(CCNC(=O)c2ccc(Cn3c(=O)c4cccn4c4cccnc43)cc2)cc1` is inactive: -25.5%; for `CC(C)=CCOc1ccc(/C=C/C(=O)c2ccc(OCC=C(C)C)cc2OCC(=O)O)cc1` it is inactive: 2.52%.

Regarding `CCOC(=O)c1sc(N2C(=O)c3oc4ccc(F)cc4c(=O)c3C2c2cccc(OC)c2)nc1C` (stereo not given), the “activity change, negative = inhibition” value is inactive: 7.79%.

As for `CCN(C(=O)Cn1c(SCc2ccccc2F)nc2cccnc21)c1ccccc1`, the “activity change, negative = inhibition” value is inactive: 3.59%. In the case of `O=C(OCc1ccccc1)c1ccc(-c2nnn(Cc3ccccc3F)n2)cc1`, the “activity change, negative = inhibition” value was inactive: 16.4%. The figure for `O=C(CSCc1nc2cccnc2n1C1CCCCC1)NCc1cccc(Br)c1` is inactive: -15.1%; for `CCOc1ccc(CCNC(=O)c2ccc3[nH]c(C)c(C)c3c2)cc1` it is inactive: -20.8%; for `Cc1ccc2scc(N3CCN(c4ccccc4)CC3)c(=O)c2c1` it is inactive: -6.02%. To `O=C(C1COc2ccccc2O1)N(Cc1cccnc1)c1nc2ccc(F)cc2s1` (stereo not given) belongs inactive: 49.9%; to `O=C(Cn1c(=O)oc2ccccc21)NCc1ccccc1Cl`, inactive: 59.4%.

In the case of `CCOc1ccc2ncc3c(-c4ccccc4)nn(CC(=O)Nc4cccc(F)c4)c3c2c1`, the “activity change, negative = inhibition” value was inactive: 10.2%.

With `COc1ccc(-n2c(-c3ccc(F)cc3)cn3c4c(=O)n(C)c(=O)n(C)c4nc23)cc1`, the “activity change, negative = inhibition” value is inactive: 56.2%. Regarding `COc1ccccc1CNC(=O)Cn1c(=O)oc2ccccc21`, the “activity change, negative = inhibition” value was inactive: 14.9%.

`O=C(CSc1nc2c(c(=O)[nH]1)CCCC2)Nc1cccc(O)c1`: the “activity change, negative = inhibition” value was inactive: 0.912%. To `CCCn1cc(S(=O)(=O)c2cccc(Cl)c2)c(=O)c2cc(F)c(N3CCN(CC)CC3)cc21` belongs inactive: -20.8%.

As to `COc1cc2[nH]c(=O)n(CCCC(=O)NCc3ccccc3Cl)c(=O)c2cc1OC`, the “activity change, negative = inhibition” value is inactive: -7.56%. To `COC(=O)c1ccccc1NC(=O)CSc1nc2sc3c(c2c(=O)[nH]1)CCCC3` belongs inactive: -10.8%; to `O=C1OC(c2ccc(O)cc2)(c2ccc(O)cc2)c2ccccc21`, inactive: -7.21%; to `COCCCNC(=O)Cn1c(=O)n(-c2cccc(C)c2)c(=O)c2c3c(sc21)CN(C(C)=O)CC3`, inactive: 1.06%. To `CON=C(C(=O)N[C@@H]1C(=O)N2C(C(=O)O)=C(CSC(=O)c3ccco3)CS[C@H]12)c1csc(N)n1` belongs inactive: -16.9%; to `CCCCn1c(CCNC(=O)c2ccc(F)cc2)nc2ccccc21`, inactive: -15.8%; to `COc1ccccc1CNc1nc(-c2ccco2)nn1C(=O)c1ccccc1[N+](=O)[O-]`, inactive: 31.5%. The figure for `COc1cc(C(=S)N2CCOCC2)ccc1O` is inactive: -5.9%; for `COc1ccc(S(=O)(=O)N2Cc3ccccc3CC2C(=O)Nc2cccc(C)c2)cc1OC` (stereo not given) it is inactive: -11.7% [at 11.5 µM]. Regarding `CN(C)c1ccc(CNc2nc(-c3ccco3)nn2S(=O)(=O)c2ccc(Cl)cc2)cc1`, the “activity change, negative = inhibition” value was inactive: 38.2%. To `CC1(C)S[C@H]2[C@H](NC(=O)[C@@H](N)c3ccc(O)cc3)C(=O)N2[C@@H]1C(=O)O` belongs inactive: 1.58%; to `CCc1cccc(C)c1NC(=O)C1CCCN(S(=O)(=O)c2cccc3nsnc23)C1` (stereo not given), inactive: -20.2%.

As for `CCN(C(=O)CSc1nnc(-c2ccc(Cl)cc2)o1)c1ccccc1`, the “activity change, negative = inhibition” value is inactive: 0.972%.

Regarding `COc1ccc(/C=N/NC(=O)c2ccncc2)cc1OC`, the “activity change, negative = inhibition” value is inactive: 7.19%. The figure for `Cc1ccc2nc(N3CCN(C(=O)C4COc5ccccc5O4)CC3)sc2c1` (stereo not given) is inactive: 19.7%; for `Cc1ccnc(NS(=O)(=O)c2ccc(NC(=O)c3cc(=O)c4ccc(C)c(C)c4o3)cc2)n1` it is inactive: -11.1%; for `COc1ccc(-c2nc3ccccc3o2)cc1NC(=O)c1ccc(N2CCC(C)CC2)c([N+](=O)[O-])c1` it is inactive: 48.2%. The figure for `CCOC(=O)c1sc(NC(=O)c2nc(SCC)ncc2Cl)c(C(=O)OCC)c1C` is inactive: 0.695%.
